Source: paper PMC4336329 (PLoS ONE, 2015)
Hit rate of the full screen: of about 310,000 compounds, about 14,000 (4.5%) showed an effect of 50% or more. Effects have a minus sign here. The list shows a part of the results.

target: human ether-à-go-go-related gene (hERG) potassium channel (human, UniProt Q12809); experiment: primary screen, population patch clamp on CHO cells stably expressing hERG
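Also: peak tail current of the secondary pulse compared with the same well before compound.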

Sequence of human ether-à-go-go-related gene (hERG) potassium channel (Q12809 whole entry, looked up): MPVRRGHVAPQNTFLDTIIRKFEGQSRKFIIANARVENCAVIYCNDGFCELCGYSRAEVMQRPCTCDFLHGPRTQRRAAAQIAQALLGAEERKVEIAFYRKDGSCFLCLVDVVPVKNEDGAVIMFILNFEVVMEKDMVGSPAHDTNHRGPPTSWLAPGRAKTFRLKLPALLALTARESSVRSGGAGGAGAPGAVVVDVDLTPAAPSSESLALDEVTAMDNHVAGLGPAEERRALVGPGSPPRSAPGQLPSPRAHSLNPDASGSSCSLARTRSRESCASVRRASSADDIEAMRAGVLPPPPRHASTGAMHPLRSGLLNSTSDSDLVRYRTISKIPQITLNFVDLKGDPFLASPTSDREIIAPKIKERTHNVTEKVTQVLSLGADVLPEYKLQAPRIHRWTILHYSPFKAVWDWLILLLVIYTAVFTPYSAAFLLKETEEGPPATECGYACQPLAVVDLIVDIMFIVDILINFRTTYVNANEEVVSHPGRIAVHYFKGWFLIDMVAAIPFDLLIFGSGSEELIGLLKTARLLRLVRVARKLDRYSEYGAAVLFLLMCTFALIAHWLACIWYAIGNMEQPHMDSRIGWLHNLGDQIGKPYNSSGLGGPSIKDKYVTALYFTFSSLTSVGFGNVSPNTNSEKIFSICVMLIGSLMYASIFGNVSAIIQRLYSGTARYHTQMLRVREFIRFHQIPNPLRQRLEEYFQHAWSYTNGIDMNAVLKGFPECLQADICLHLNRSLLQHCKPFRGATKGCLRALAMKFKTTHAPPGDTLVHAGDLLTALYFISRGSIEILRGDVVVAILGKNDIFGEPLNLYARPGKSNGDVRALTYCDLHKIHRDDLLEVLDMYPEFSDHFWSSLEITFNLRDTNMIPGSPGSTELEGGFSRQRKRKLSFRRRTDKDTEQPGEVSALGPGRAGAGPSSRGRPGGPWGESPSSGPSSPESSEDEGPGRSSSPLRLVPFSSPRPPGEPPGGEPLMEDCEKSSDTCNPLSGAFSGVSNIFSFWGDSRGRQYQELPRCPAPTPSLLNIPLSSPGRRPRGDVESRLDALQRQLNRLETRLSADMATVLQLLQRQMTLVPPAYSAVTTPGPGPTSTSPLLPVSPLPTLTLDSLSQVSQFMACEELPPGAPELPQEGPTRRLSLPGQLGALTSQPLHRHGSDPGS

Q: How did the “hERG current change (%, negative = inhibition) at 10uM” value turn out when `O=C(O)/C=C/C(=O)O.c1ccc(CCC2=NCCn3cccc32)cc1` was run?
A: -23.6%

Q: With `C=CCN1C(=O)CSc2ccc(C(=O)NC(C)c3ccccc3)cc21` (stereo not shown) as the compound, how does the “hERG current change (%, negative = inhibition) at 10uM” value read?
A: -17.5%

Q: For `Cc1cc(OCCOc2cccc3cccnc23)c(C)cc1Cl`, which “hERG current change (%, negative = inhibition) at 10uM” value is on record?
A: -1.89%

Q: For `COc1ccc2oc(=O)c(C(=O)N3CCN(c4ccc(F)cc4)CC3)cc2c1`, which “hERG current change (%, negative = inhibition) at 10uM” value is on record?
A: -27.3%

Q: Which “hERG current change (%, negative = inhibition) at 10uM” value does the source give for `COc1ccc(NC(=O)CN2CCN(CC(=O)Nc3ccc(F)cc3)CC2)cc1Cl` here?
A: -80.5%

Q: Which “hERG current change (%, negative = inhibition) at 10uM” value does the source give for `c1cncc(-c2noc(-c3cccc4ccccc34)n2)c1` here?
A: 16.3%

Q: For `Cc1ccc(-n2cc(CN3CCC(O)(c4ccccn4)CC3)c(-c3ccc(F)cc3)n2)cc1`, which “hERG current change (%, negative = inhibition) at 10uM” value is on record?
A: -56.7%

Q: For `CCOc1ccc(/C=C/C(=O)CCC(=O)O)cc1`, which “hERG current change (%, negative = inhibition) at 10uM” value is on record?
A: 13.5%

Q: For `COc1ccccc1N(Cc1ccccc1)S(=O)(=O)c1cccc(C(=O)Nc2cccc(C)n2)c1`, which “hERG current change (%, negative = inhibition) at 10uM” value is on record?
A: -3.51%

Q: `S=C(Nc1ccc(Oc2ccccc2)cc1)NC1CCCCCC1` was tested. Which “hERG current change (%, negative = inhibition) at 10uM” value did it give?
A: 25.4%

Q: Which “hERG current change (%, negative = inhibition) at 10uM” value does the source give for `Cc1oc(-c2cccs2)nc1CN1CCN(CCC(C)C)C(CCO)C1` (stereo not shown) here?
A: -27.6%

Q: How did the “hERG current change (%, negative = inhibition) at 10uM” value turn out when `COc1ccc(C2=[N+]([O-])C(C)(C)N(O)C2(C)C)cc1` was run?
A: 7.47%

Q: `Cc1ccc(N2CCN(/N=C/C3=C(N4CCOCC4)C(=C\c4ccccc4)/CC3)CC2)cc1` was tested. Which “hERG current change (%, negative = inhibition) at 10uM” value did it give?
A: 26.2%

Q: `Cc1ccc(C)c(C(=O)COC(=O)c2cc([N+](=O)[O-])ccc2NCCO)c1` was tested. Which “hERG current change (%, negative = inhibition) at 10uM” value did it give?
A: -9.5%

Q: For `O=C(O)Cn1nc(-c2ccccc2)c2ccccc2c1=O`, which “hERG current change (%, negative = inhibition) at 10uM” value is on record?
A: 21.8%

Q: Which “hERG current change (%, negative = inhibition) at 10uM” value does the source give for `CC(C)n1cnc2cc(NCc3ccccc3O)ccc21` here?
A: 3.94%

Q: With `O=C(N/N=C/c1c[nH]c2ccccc12)c1ccccc1Cl` as the compound, how does the “hERG current change (%, negative = inhibition) at 10uM” value read?
A: 1.24%

Q: With `COc1ccccc1CNc1ccc2c(c1)CCC2` as the compound, how does the “hERG current change (%, negative = inhibition) at 10uM” value read?
A: 13.8%

Q: `Cc1ccc(NC(=O)NCc2ccccn2)cc1Cl` was tested. Which “hERG current change (%, negative = inhibition) at 10uM” value did it give?
A: 17.6%

Q: How did the “hERG current change (%, negative = inhibition) at 10uM” value turn out when `Cn1c(N)c(C(=O)CSc2nc3ccccc3n2-c2ccccc2)c(=O)n(C)c1=O` was run?
A: 4.96%

Q: How did the “hERG current change (%, negative = inhibition) at 10uM” value turn out when `COc1cc(C(=O)Nc2nccs2)c(Br)c(OC)c1OC` was run?
A: 13.9%

Q: How did the “hERG current change (%, negative = inhibition) at 10uM” value turn out when `CCOC(=O)NC1(C(F)(F)F)NC(=O)N(c2ccc(F)cc2)C1=O` (stereo not shown) was run?
A: 0.469%

Q: How did the “hERG current change (%, negative = inhibition) at 10uM” value turn out when `Cc1ccc(S(=O)(=O)NCC(=O)OCC(=O)N(Cc2ccccc2)C(C)(C)C)cc1` was run?
A: 1.33%

Q: How did the “hERG current change (%, negative = inhibition) at 10uM” value turn out when `Cc1cc(C)c(C(N)=O)c(Nc2cccc(Cl)c2)n1` was run?
A: 6.36%

Q: How did the “hERG current change (%, negative = inhibition) at 10uM” value turn out when `CCCn1c(SCc2cc(=O)[nH]c3ccccc23)nc2c1c(=O)n(C)c(=O)n2C` was run?
A: -7.61%
